Reference: paper PMC4336329 (PLoS ONE, 2015)
About 14,000 (4.5%) of roughly 310,000 compounds showed an effect of 50% or more. Effects have a minus sign here. This is one part of the list.

target: human ether-à-go-go-related gene (hERG) potassium channel (human, UniProt Q12809); experiment: primary screen, population patch clamp on CHO cells stably expressing hERG
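Also: peak tail current of the secondary pulse compared with the same well before compound.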

Sequence of human ether-à-go-go-related gene (hERG) potassium channel (Q12809 whole entry, looked up): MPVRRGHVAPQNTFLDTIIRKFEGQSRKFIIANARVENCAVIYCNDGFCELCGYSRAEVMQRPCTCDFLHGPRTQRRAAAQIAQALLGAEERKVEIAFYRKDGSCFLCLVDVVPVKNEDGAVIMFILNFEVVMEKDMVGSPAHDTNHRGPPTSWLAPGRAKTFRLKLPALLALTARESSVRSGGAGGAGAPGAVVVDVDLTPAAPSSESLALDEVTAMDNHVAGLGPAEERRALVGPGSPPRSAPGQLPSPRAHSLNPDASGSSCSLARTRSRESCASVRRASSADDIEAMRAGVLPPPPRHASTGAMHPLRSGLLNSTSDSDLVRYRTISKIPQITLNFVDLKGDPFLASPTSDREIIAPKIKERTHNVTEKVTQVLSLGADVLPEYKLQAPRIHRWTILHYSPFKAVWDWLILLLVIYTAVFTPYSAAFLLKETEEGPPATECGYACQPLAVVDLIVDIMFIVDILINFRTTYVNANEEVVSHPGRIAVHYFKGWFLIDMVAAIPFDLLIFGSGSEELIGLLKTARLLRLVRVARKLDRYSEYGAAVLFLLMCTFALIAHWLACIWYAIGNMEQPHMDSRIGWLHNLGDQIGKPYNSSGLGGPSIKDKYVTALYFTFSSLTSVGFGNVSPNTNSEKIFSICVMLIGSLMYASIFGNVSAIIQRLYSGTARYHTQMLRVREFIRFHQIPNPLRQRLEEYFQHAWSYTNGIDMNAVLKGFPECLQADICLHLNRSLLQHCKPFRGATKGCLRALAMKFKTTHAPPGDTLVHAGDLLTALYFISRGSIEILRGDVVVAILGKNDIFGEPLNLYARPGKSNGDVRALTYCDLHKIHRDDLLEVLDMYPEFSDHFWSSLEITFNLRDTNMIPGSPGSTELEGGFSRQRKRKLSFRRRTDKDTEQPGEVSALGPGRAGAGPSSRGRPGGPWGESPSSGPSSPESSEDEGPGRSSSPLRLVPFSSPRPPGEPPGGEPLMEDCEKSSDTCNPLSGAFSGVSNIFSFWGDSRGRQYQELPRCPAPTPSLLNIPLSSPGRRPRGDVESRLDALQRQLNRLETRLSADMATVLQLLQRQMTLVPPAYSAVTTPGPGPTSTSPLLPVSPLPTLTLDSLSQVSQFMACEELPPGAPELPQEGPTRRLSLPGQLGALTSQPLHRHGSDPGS

Row | SMILES | hERG current change (%, negative = inhibition) at 10uM [%]
1 | Cc1cccc(NC(=O)CSc2nnc(NC(=O)C3CCC3)s2)c1 | 22.9
2 | COC(=O)CC1C(=O)NCCN1C(=O)c1ccc(S(=O)(=O)N2CCOCC2)cc1 (stereo not shown) | 8.9
3 | Cc1ccc(NC(=O)Cn2c(CCC(=O)O)ccc2-c2cccs2)cc1Cl | -75.3
4 | Cc1ccc(-c2ccc3c(c2)S(=O)(=O)c2ccccc2C3=O)cc1 | 4.82
5 | CCNC(=O)NC1(C(=O)N2CCC(Cc3ccccc3)CC2)CCCCC1 | 21.7
6 | Cc1ccc(-c2nn(C)c(=O)c3ccccc23)cc1CNS(C)(=O)=O | -2.75
7 | O=S(=O)(Nc1ccc(-c2ccc3nncn3n2)cc1)c1cc(F)ccc1F | -6.27
8 | CC(C(=O)NC1C=CS(=O)(=O)C1)N1C(=O)/C(=C/c2ccc(Cl)cc2)SC1=S (stereo not shown) | -12.3
9 | COc1ccc(CCN(C)CC(O)COc2c(C)ccc(C)c2C)cc1OC (stereo not shown) | -76
10 | COCCNC(=O)/C(C#N)=C/c1cccc(OCc2ccccc2)c1 | -1.17
11 | Cc1ccc(Cl)c(OCC(O)CN(CCO)CCO)c1 (stereo not shown) | -0.678
12 | C=CCNc1ccc(F)c(F)c1N1CCCCCC1=O | 12.7
13 | CCCC1C2C(=O)N(c3cccc(C)c3)C(=O)C2ON1c1ccccc1 (stereo not shown) | -7.73
14 | CCOC(=O)c1nc(-c2ccccc2)sc1C(C)=O | -0.873
15 | COc1cc(O)oc1C=Nc1ccccc1 | -18.3
16 | c1ccc(C2CC(c3ccccc3)C(c3ccccc3)N2)cc1 (stereo not shown) | -1.19
17 | CCc1nc2ccc(C(=O)Nc3cccc(C(C)=O)c3)cc2nc1CC | 1.42
18 | CC1CCCN(c2nc3nonc3nc2Nc2ccccc2F)C1 (stereo not shown) | 32.4
19 | CCCCOc1ccccc1NC(=O)CC1Nc2ccccc2NC1=O (stereo not shown) | 5.96
20 | CC1CCN(C(=O)Oc2ccccc2)CC1 | 26.4

Row | SMILES | hERG current change (%, negative = inhibition) at 10uM [%]
21 | Cc1ccc(/C=N/NC(=O)CSc2nc3ccccc3n2Cc2ccc(Cl)cc2)o1 | -16.2
22 | CC(Nc1nc(-c2ccc(F)cc2)cs1)c1nc2cc(C(F)(F)F)ccc2n1CCCO (stereo not shown) | -42.5
23 | Cc1cc(OCC(=O)OCC(=O)N(C)c2c(N)n(Cc3ccccc3)c(=O)[nH]c2=O)ccc1Cl | -0.867
24 | CC(C)(C)n1ncc2c(=O)n(Cc3cccc(Cl)c3)cnc21 | -19.3
25 | O=C(NNC(=O)C1CCN(S(=O)(=O)c2c(Cl)cccc2Cl)CC1)c1ccccc1O | -24.6
26 | C=CCN=C1SCC(=O)N1S(=O)(=O)c1ccc(C)cc1 | -16.3
27 | O=C(O)C1Nc2c(C(F)(F)F)ccc(Cl)c2C2C=CCC12 (stereo not shown) | 20.1
28 | CC(C)(C)NC(=O)c1ccc2nccnc2c1 | 7.59
29 | CCOC(=O)C1=C(c2ccccc2)NC(SCC)=C(C#N)C1c1cccnc1 (stereo not shown) | 7.4
30 | Cc1cccc(NCc2n[nH]c(=S)n2-c2ccccc2)c1 | 4.73
31 | CCOC(=O)CNc1nc(Oc2ccc(=O)n(C)n2)nc(N(CC)CC)n1 | 0.791
32 | CN(C(=O)c1cccc(Nc2ccc(-c3ccc4c(c3)OCCO4)nn2)c1)C1CCCCC1 | 2.62
33 | Cc1cccc(/C=N/n2c(-c3ccccc3)n[nH]c2=S)c1O | 14.8
34 | Cc1cccc(N(C(=O)Nc2ccccc2)C2=NCC(C)S2)c1 (stereo not shown) | -1.06
35 | CCCCCCC(=O)Nc1nc(C)c(-c2csc(Nc3cccc(OC)c3)n2)s1 | 18
36 | CN(C)C=O.COc1cc(/C=C/c2nc3ccccc3c(=O)n2-c2ccc(O)cc2)ccc1O | 14.1
37 | c1ccc(N(c2ccccc2)c2nc(-n3ccnc3)nc(-n3ccnc3)n2)cc1 | -24.2
38 | COc1ccccc1-c1n[nH]c(=S)o1 | 21.9
39 | O=C(CCNC(=O)c1ccccc1Cl)Nc1cc(C(F)(F)F)ccc1Cl | 22.2
40 | COc1cc(C(=O)NCc2cc3cc(Cl)ccc3n2C)cc(OC)c1OC | 17.3

Row | SMILES | hERG current change (%, negative = inhibition) at 10uM [%]
41 | CC(=O)Cn1c(=O)oc2ccccc21 | 4.02
42 | Brc1cccc(-c2n[nH]c(-c3ccccc3)n2)c1 | 2.27
43 | COc1cccc(C(=O)N2CCN(Cc3ccccc3C(F)(F)F)CC2)c1.O=C(O)C(=O)O | -15.6
44 | COCCNc1nc2c(c(=O)n(Cc3ccccc3F)c(=O)n2C)n1C | -15.8
45 | Cc1oc2cc(O)ccc2c(=O)c1Oc1ccccc1Br | 8.02
46 | CN(C(=O)Oc1cccc2cccnc12)c1ccccc1 | 13.3
47 | COc1ccc2cc(C(=O)NCc3ccco3)c(=Nc3ccc(C(=O)O)cc3)oc2c1 | -31.8
48 | CCOC(=O)Cn1cc(C(=O)OC)c2ccccc21 | 16.5
49 | O=C(COC(=O)c1ccc(Br)o1)c1ccc(S(=O)(=O)N2CCCCC2)cc1 | 14
50 | COc1ccc(NS(=O)(=O)c2ccc(NC(=O)c3ccc(CN4CCOCC4)cc3)cc2)cc1 | 27
51 | Cc1ccccc1NC(=O)COC(=O)c1c[nH]c(=O)[nH]c1=O | 23.4
52 | COc1cc(NS(=O)(=O)c2ccc(OC)c(C)c2C)c(OC)cc1Cl | 13.4
53 | CCc1[nH]nc2c1C(C1C=CCCC1)C(C#N)=C(N)O2 (stereo not shown) | -7.62
54 | Cc1cc[n+](C(C)C(=O)c2ccc(-c3ccccc3)cc2)cc1.[Br-] (stereo not shown) | 5.57
55 | CC(CCc1ccccc1)NC(=O)CCc1cn(C)c2ccccc12 (stereo not shown) | 18.3
56 | Cc1ccc(OCC(=O)NCCNC(=O)c2ccccn2)cc1 | 13.1
57 | CCC1C(=O)N(c2nc(C)cc(C)n2)N=C1C (stereo not shown) | 7.93
58 | CCOC(=O)C1=C(N)Oc2c(oc(CO)cc2=O)C1c1ccc(Cl)cc1 (stereo not shown) | -7.87
